The supplement of paper PMC9446081
The whole screen tested about 39,000 compounds, of which about 220 (0.56%) showed activity. This is one part of the list.

tested on: Escherichia coli K-12 BW25113; assay: relative growth (OD600 normalised to plate interquartile mean) (fraction); higher = less growth inhibition, active = 0.2 or less; settings: 50 µM; LB; incubation time: overnight (16-24 h)
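Note: static incubation at 37 °C against the wild-type strain, values averaged over two biological replicates.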

SMILES	relative growth
C[C@H]1CCCCO[C@H](CN(C)C(=O)Nc2cccc3ccccc23)[C@@H](C)CN([C@@H](C)CO)C(=O)c2cc(NC(=O)NC3CCCCC3)ccc2O1	inactive: 1.03
COc1ccc(S(=O)(=O)N(C)C[C@@H]2OCCCC[C@H](C)Oc3ccc(NC(=O)NC4CCCCC4)cc3C(=O)N([C@H](C)CO)C[C@H]2C)cc1	inactive: 1.03
C[C@H](CO)N1C[C@H](C)[C@@H](CN(C)C(=O)Nc2ccc(F)cc2)Oc2c(NC(=O)CCCCCC(=O)Nc3ccccc3N)cccc2C1=O	inactive: 0.995
C[C@H]1CN([C@@H](C)CO)S(=O)(=O)c2ccc(C#CCN(C)C)cc2O[C@H]1CN(C)C	inactive: 0.981
C[C@@H]1CN([C@@H](C)CO)C(=O)CCCn2nncc2CO[C@@H]1CN(C)S(=O)(=O)c1ccc2ccccc2c1	inactive: 1.01
C[C@H](CO)N1C[C@H](C)[C@@H](CN(C)S(C)(=O)=O)Oc2ccc(NC(=O)CCCCCC(=O)Nc3ccccc3N)cc2CC1=O	inactive: 0.999
N[C@@H](CC(=O)O)c1cccc([N+](=O)[O-])c1	inactive: 1.03
C[C@@H]1CCCCO[C@H](CN(C)CC2CC2)[C@H](C)CN([C@@H](C)CO)C(=O)c2cc(NC(=O)Nc3ccc4c(c3)OCO4)ccc2O1	inactive: 0.974
C[C@@H]1CCCCO[C@H](CN(C)C(=O)C2CCCCC2)[C@@H](C)CN([C@H](C)CO)C(=O)c2cc(NC(=O)Nc3ccc(F)cc3)ccc2O1	inactive: 0.998
C[C@H](CO)N1C[C@H](C)[C@H](CN(C)C(=O)Nc2ccc3c(c2)OCO3)OCCCC[C@H](C)Oc2ccc(NC(=O)CCCCCC(=O)Nc3ccccc3N)cc2C1=O	inactive: 0.995
COc1ccc(NC(=O)Nc2ccc3c(c2)CC(=O)N([C@@H](C)CO)C[C@H](C)[C@@H](CN(C)C(=O)Nc2ccc(C(F)(F)F)cc2)O3)cc1	inactive: 0.993
COc1ccc(Nc2ccc(-c3ccncc3)s2)cc1Cl	inactive: 1.04
O=C(O)CCC(=O)C(=O)O	inactive: 0.987
Cc1noc(C)c1NC(=O)N(C)C[C@H]1OCCCC[C@H](C)Oc2ccc(NS(=O)(=O)c3cccs3)cc2C(=O)N([C@@H](C)CO)C[C@@H]1C	inactive: 0.972
COc1cc(CN2C(=O)[C@@H]3[C@H]4C(=O)O[C@@H](c5ccccc5)[C@H](C)N(C)C(=O)CC/C=C\CN(Cc5ccccc5)C(=O)[C@H]2[C@]32C=C[C@@H]4O2)ccc1O[SiH](C(C)C)C(C)C	inactive: 1.04
COc1ccc(S(=O)(=O)N(C)C[C@H]2OCCCC[C@@H](C)Oc3ccc(NC(=O)Nc4ccccc4)cc3C(=O)N([C@@H](C)CO)C[C@H]2C)cc1	inactive: 1.02
